Among all 200,000 compounds or so, about 10 (0.005%) were called active. The inconclusive results got no clear call from the source; some entries with a clear call stand among them for comparison. Calls come from the whole dose curve; as a rule, active = well fitted inhibition curve with a large enough effect; inconclusive = small, poorly fitted or top-dose-only effect, or effect the other way, or another doubt; inactive = no such curve, though single readings can be large or run the other way. Potencies of inconclusive entries are left out as doubtful fits.
biological target: Lysosomal alpha-glucosidase (Homo sapiens) (UniProt P10253); test: qHTS Assay for Inhibitors of Human alpha-Glucosidase as a Potential Chaperone Treatment of Pompe Disease; settings: purified human GAA, 4-MU-alpha-glucoside fluorescence; activity change, negative = inhibition: at 76.9 µM (top of the series) unless noted;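 for activity change, negative = inhibition: plate controls were uninhibited enzyme wells for no effect and no-enzyme background for full effect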
Summary of the method: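 Activity normalized between no-enzyme (basal) and enzyme-only wells. Conditions: 4 nM human enzyme, 400 uM fluorogenic substrate, citrate/phosphate pH 5.0 with Tween-20, 20 min room temperature, compounds up to 77 uM.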
Potency is the fitted concentration of half-maximal effect; tags give direction and shape of the fitted curve.

| Structure (SMILES) | Potency | activity change, negative = inhibition |
| --- | --- | --- |
| CCOC(=O)c1ccc(NC(=O)N2CCN(C(=O)c3ccco3)CC2)cc1 | inconclusive [inhibitor, full curve, poor fit] |  |
| COC(=O)Cc1c(C)c2cc(Cl)c(OC(=O)c3ccco3)cc2oc1=O | inconclusive [activator, partial curve] |  |
| Cc1ccn2c(=O)c(C(=O)O)cnc2c1 | inconclusive [activator, single point] |  |
| O=C1Nc2ccccc2C1=Nc1ccc(S(=O)(=O)Nc2nccs2)cc1 |  | inconclusive: -17.6% [inhibitor] |
| Cc1cc(C)c2sc(N(CCCN(C)C)C(=O)c3ccc(Br)s3)nc2c1 | inconclusive [inhibitor, partial curve] |  |
| Cc1cccc(NC(=S)N(CCCN(C)C)Cc2cc3cc4c(cc3[nH]c2=O)OCO4)c1 |  | inconclusive: 15.3% [activator] |
| CC(C)OC(=O)CC1C(=O)NCCN1C(=S)NC(=O)c1cccs1 (stereo not drawn) | inconclusive [inhibitor, full curve, poor fit] |  |
| N#Cc1c(NC(NC(=O)c2ccco2)C(=O)c2ccccc2)sc2c1CCCC2 (stereo not drawn) | inactive |  |
| Cc1noc(C)c1CN(C(=S)NC1CC2CCC1C2)c1ccccc1 (stereo not drawn) | inconclusive [inhibitor, partial curve, poor fit] |  |
| CS(=O)(=O)C1=NSC2=NC(=O)/C(=C\c3cccn3-c3ccc(Cl)cc3)C(=N)N21 |  | inconclusive: -15.2% [inhibitor] |
| CCCc1sc(N)nc1-c1ccc(C)cc1 | inconclusive [inhibitor, single point] |  |
| COC(=O)C1=CN(Cc2ccc(OC)cc2)C=C(C(=O)OC)C1c1ccsc1 | inconclusive [activator, partial curve] |  |
| Cc1cccc2sc(NNC(=O)c3ccc(S(=O)(=O)N4CC(C)CC(C)C4)cc3)nc12 (stereo not drawn) | inconclusive [inhibitor, full curve] |  |
| Cc1ncc([N+](=O)[O-])n1CC(=O)NC1CCCCCC1 |  | inconclusive: 15.1% [activator] |
| Cc1ccc(S(=O)(=O)CCNC(=O)Cc2ccc(Cl)cc2)cc1 | inconclusive [inhibitor, single point] |  |
| Nc1nc(-c2ccccc2)c(N=Nc2cccc3ccccc23)s1 | inactive |  |
| Cc1ccc(C(C)C)cc1OCC(=O)N/N=C/c1ccc2c(c1)OCCO2 | inconclusive [inhibitor, single point] |  |
| COc1ccccc1-c1nc(-c2ccncc2)no1 | inconclusive [inhibitor, partial curve] |  |
